The list shows a part of the results. Further columns of the screen follow, without active or inactive calls.
Columns and labels:
Experiment in all cases: Primary Screen for Target Class Profiling of Small Molecule Inhibitors of Methyltransferases
[1] = target: Glycine N-methyltransferase (Homo sapiens) (UniProt Q14749); settings: purified enzyme, MTase-Glo SAH luminescence; measured here: GNMT inhibition; at 40 µM; stronger effect = lower value
Summary of the method: (§1)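 Each enzyme was assayed with SAM and its substrate. SAH formation detected by MTase-Glo luminescence; single-point 40 uM screen[…].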

[2] = target: Guanidinoacetate N-methyltransferase (Homo sapiens) (UniProt Q14353); settings: purified enzyme, MTase-Glo SAH luminescence; measured here: GAMT inhibition; at 40 µM; stronger effect = lower value
Summary of the method: as §1

[3] = target: Histamine N-methyltransferase (Homo sapiens) (UniProt P50135); settings: purified enzyme, MTase-Glo SAH luminescence; measured here: HNMT inhibition; at 40 µM; stronger effect = lower value
Summary of the method: as §1

[4] = target: Nicotinamide N-methyltransferase (Homo sapiens) (UniProt P40261); settings: purified enzyme, MTase-Glo SAH luminescence; measured here: NNMT inhibition; at 40 µM; stronger effect = lower value
Summary of the method: as §1

[5] = target: Phenylethanolamine N-methyltransferase (Homo sapiens) (UniProt P11086); settings: purified enzyme, MTase-Glo SAH luminescence; measured here: PNMT inhibition; at 40 µM; stronger effect = lower value
Summary of the method: as §1
% is scaled to controls: 0 for no effect and ±100 for the full control effect.

| Structure (SMILES) | activity change, negative = inhibition [1] [%] | activity change, negative = inhibition [2] [%] | activity change, negative = inhibition [3] [%] | activity change, negative = inhibition [4] [%] | activity change, negative = inhibition [5] [%] |
| --- | --- | --- | --- | --- | --- |
| CCc1ccccc1N1C(=O)c2c(C(=O)OC)ncn2CC1(C)C(=O)NC1CCCCCC1 (stereo not drawn) | 0.95 | 1.73 | -4.56 | 5.74 | 0.856 |
| CC1(C)CC[C@]2(C(=O)O[C@@H]3O[C@H](CO)[C@@H](O)[C@H](O)[C@H]3O)CC[C@]3(C)C(=CCC4[C@@]5(C)C[C@@H](O)[C@H](O)C(CO)(CO)C5CC[C@]43C)C2[C@@H]1O (stereo partly drawn) | 1.48 | 4.83 | 2.21 | -9.05 | 2.93 |
| Cn1c(=O)n(C)c2cc(S(=O)(=O)Nc3ccc(N4CCOCC4)c(Cl)c3)ccc21 | -7.47 | 0.805 | -23.5 | 8.55 | 0.995 |
| CN(Cc1cc(C2CC2)on1)Cc1nnc(C2CC(N)C2)n1C1CC1 (stereo not drawn) | -5.88 | -9.93 | -4.04 | -16.1 | 0.925 |
| O=C(N1CC(Oc2ccc(-c3noc(-c4ccccc4)n3)cc2)C1)C1(c2ccccc2)CC1 | -3.36 | -3.8 | -1.46 | -9.84 | -8.03 |
| O=C(CCC1CCCC1)N1CCCC1c1nc(CCOCC2CC2)no1 (stereo not drawn) | -2.97 | -0.808 | 0.3 | -11.5 | -3.09 |
| COc1ccc(OC)c(CNC(=O)CCCn2ccc3cc(S(=O)(=O)N4CCCC4)ccc32)c1 | 8.46 | 0 | 7.96 | 7.14 | 3.87 |
| CC(CNC(=O)CCc1nnc2n(Cc3ccc(Cl)cc3)c(=O)c3ccccc3n12)c1ccccc1 (stereo not drawn) | -14.3 | -5.84 | -8.92 | -26.2 | -2.46 |
| Cc1nc(CCNC(=O)c2cnc(-c3cccnc3)nc2)cc(=O)[nH]1 | -1.44 | -1.96 | 0.506 | -9.3 | -4.25 |
| CC(C)CCN1C(=O)c2cc3occc3n2CC1(C)C(=O)NC1CCCC(C)C1C (stereo not drawn) | -7.31 | -5.07 | 3.65 | -7.01 | -7.45 |
| CCN1C(=O)c2cc(C(=O)Nc3ccccc3C)nn2CC1(C)C(=O)NC1CCCC1 (stereo not drawn) | -6.84 | -1.29 | -10.4 | -4.85 | -1.93 |
| CCc1c(-c2ccccc2)c(-c2ccccc2)nn1-c1ccccc1-c1cccc(OCC(=O)O)c1 | -5.24 | 16.2 | 7.95 | -67.7 | 4.22 |
| CN(CC1CCOC1)C(=O)Cc1ccccc1 (stereo not drawn) | -2.05 | 4.09 | 2.39 | 1.56 | 13.6 |
| CCOc1ccc(CN2C(=O)c3ccc(-c4ccco4)n3CC2(C)C(=O)NC2CCCCCC2)cc1 (stereo not drawn) | -9.24 | 4.37 | 1.81 | -12.3 | -3.49 |
| CCOc1ccc(C(=O)Cn2nc3n(Cc4ccc(F)cc4)c(=O)c4ccccc4n3c2=O)cc1 | 3.78 | 5.28 | 6.47 | -0.182 | 2.83 |
| CC1(C(=O)NC2CCCCCC2)Cn2c(c(-n3cccc3)c3cc(F)ccc32)C(=O)N1Cc1ccccc1 (stereo not drawn) | -3.41 | -2.93 | -1.53 | -2.65 | 0.752 |
| CC1=CCC[C@@H]2[C@@](C)(CCc3ccoc3)[C@H](C(=O)O)CC[C@@]12C | -4.93 | -5.51 | 4.82 | -18.8 | -6.41 |
| Cc1nccn1CC(=O)N1CCCn2cc(-c3cccc(C#N)c3)nc21 | -7.1 | -6.05 | -34.6 | -13.7 | -7.42 |
| CC12CCC3c4ccc(O)cc4CCC3C1CC(OC1OC(C(=O)O)C(O)C(O)C1O)C2O (stereo not drawn) | -17.8 | -4.3 | 13.3 | -14.2 | 2.82 |

| Structure (SMILES) | activity change, negative = inhibition [1] [%] | activity change, negative = inhibition [2] [%] | activity change, negative = inhibition [3] [%] | activity change, negative = inhibition [4] [%] | activity change, negative = inhibition [5] [%] |
| --- | --- | --- | --- | --- | --- |
| CCCn1c(=O)c2cc(F)ccc2n2c(SCc3ccc(F)cc3)nnc12 | -10.2 | 1.8 | 5.83 | -6.15 | 2.41 |
| O=C(Cn1nc2n(CCc3ccccc3)c(=O)c3ccccc3n2c1=O)NCc1ccccc1 | 5.26 | 0.749 | 12.2 | 3.86 | 4.35 |
| COc1cccc(C2c3cccn3-c3sc4c(c3CN2C(=O)Nc2ccccc2)CCCC4)c1 (stereo not drawn) | 1.39 | 2.04 | 8.7 | 1.89 | 5.37 |
| COc1cc(C[C@H]2C(=O)OC[C@@H]2Cc2ccc(OC)c(OC)c2)ccc1O | 5.06 | 4.07 | 10.4 | -8.1 | 1.21 |
| CC1CCC(NC(=O)C2(C)Cn3c(ccc3-c3ccccc3)C(=O)N2CCCc2ccccc2)CC1 (stereo not drawn) | 10.5 | 0.421 | 6.14 | 5.95 | 3.54 |
| Brc1cccc(-c2nnn3c2nc(NC2CCCC2)c2ccccc23)c1 | -4.5 | 2.78 | 2.06 | -5.5 | -5.53 |
| CC[C@H]1CN(C(=O)c2ccnc(Cl)c2)CC[C@H]1CC(=O)N1CCC(C(N)=O)CC1 | -3.25 | -3.91 | -0.788 | -3.46 | -1.4 |
| CCOC(=O)C1CCCN(c2nc3c(S(=O)(=O)c4ccc(C)cc4)nnn3c3ccccc23)C1 (stereo not drawn) | -2.81 | 2.52 | 4.83 | 3.92 | 1.36 |
| O=S(=O)(N[C@H]1[C@H](O)[C@H](O)C[C@@H]1c1ccc(C(F)(F)F)nc1)c1ccc(Cl)cc1 | -2.56 | -2.66 | 0.275 | -7.34 | 28.4 |
| O=S(=O)(Cc1ccccc1)N1CCC(n2cnnc2C2CC2)CC1 | -0.584 | -3.65 | 0.607 | -8.27 | -2.81 |
| CC1CCN(S(=O)(=O)c2ccc3c(ccn3CCC(=O)NCCc3ccccc3)c2)CC1 | -1.94 | 2.83 | -3.87 | -6.07 | -1.82 |
| Cc1csc2c(NCCC3CN(c4cnn(C)c(=O)c4)CCO3)ncnc12 (stereo not drawn) | -35 | -16.1 | -15.1 | -36.4 | -25.3 |
| Oc1c(C(c2ccccc2)N2CCC(O)CC2)sc2nc(-c3ccco3)nn12 (stereo not drawn) | – | 8.73 | – | -6.58 | 5.36 |
| Cc1cc(CN2CCC3(CC2)CN(C2CCC2)CC3CO)n(C)n1 (stereo not drawn) | -6.25 | -11 | -7.59 | -14 | -7.51 |
| CC(C)CCn1c(=O)c2ccc(C(=O)NC3CCCC3)cc2n2c(=O)n(Cc3ccc(Cl)cc3)nc12 | 6.13 | 0.638 | 8.05 | 3.22 | 6.69 |
| C/C=C/C=C/C(=O)O[C@@H]1C=C2COC(=O)[C@]2(O)[C@@]2(C)CCCC(C)(C)[C@H]12 | 0.343 | 4.79 | 4.95 | -16.3 | -4.14 |
| C[C@@]12CC[C@@H]3[C@@](CC[C@H]4[C@@]3(C)CCC[C@@]4(C)C(=O)O)(CC1=O)C2 | -4.91 | -7.23 | -2.44 | -24.4 | -9.57 |
| CCOCCCNC(=O)c1c(C)noc1-c1ccc(OC(F)(F)F)cc1 | -5.07 | 0.601 | 0.334 | -3.78 | 1.03 |
| COc1ccc(CNC(=O)CCn2ccc3cc(S(=O)(=O)N4CCCCC4)ccc32)c(OC)c1 | -4.03 | 0.646 | -8.76 | -21.3 | -3.86 |

— PubChem BioAssay AID1745853 (National Center for Advancing Translational Sciences (NCATS), 2022)
